Read counts are not given, so values of variants with three or more changes are uncertain.
B1: OR4K15 (parent)
chain: GUUAACGGUCAUAGGCCAUGGAAACUAGGAGCACCAUUUCGCUGCCAGUGAAGAAAUGAACAAAGAAAAUCUGGGCCAGGCAGGCAUCAAAAGAAAUAGUCUUGCGCUCAACCAGAAAGUCUGUAAUCAUUUUAAGGGUA

Variants of: B1
Test: self-cleavage, relative activity (ratio to wild type); higher = more cleavage; in vitro, sequencing; the parent is a self-cleaving ribozyme

| Variant | self-cleavage |
| --- | --- |
| GUUAACGGUCAUAGGCCAUGGAAACUAGGAGCAGCAUUUCGCUGCCGGUGAAGAAGUGUACAAAGAAAAUCUGGGCCAGGCAGGCAUCAAAAGAAAUAGUCUUGCGCUCAACCAGAAAGUCUGUAAUCACUUUAAGGGUA | 0.84 |
| GUUACCGGUCAUAGGCCAUGGAAACUAGGAGCACCAUUUCGCUGCCAGUGAAGGAAUGAGCAAAGAAGAACUGGGCCAGGCAGGCAUCAAAAGAAAUAGUCUUGCGCUCAACCAGAAAGUCUGUAAUCAUUUUAAGGGUA | 0.79 |
| GUUAACGGUCAUAGGCCAUGGAAACUAGGAGCACCAUUUCGCUGCCAGCGGAGAAAUGAACAAAGAAAAUCUGGGCCAGACAGGCGUCAAAAGAAAUAGUCUUGCGCUCAACCAGAAAGUCUGUAAUCAUUUUAAGGGUA | 0.12 |
| GUUAGCGGUCAUAGGCCAUGGAGGCUAGGAGCACCACUUCGCUGCCAGUGAAGAAAUGGGCAAAGAAAAUCUGGGCCAGGCAGGCAUCAAAAGAAAUAGUCUUGCGCUCAACCAGAAAGUCUGUAAUCAUUUUAAGGGUA | 0.94 |
| GUUAACGGUCAUAGGCCACGGAAACUAGGAGCACCAUUUAGCUGCCAGUGAAGAAAUGAACAAAGAAAAUCUGGGCCAGGCAGGCAUCAAAAGAAAUAGUCUUGCGCUCAACCAGAAAGUCUGUAAUCAUUUUAGGGGUA | 1.22 |
| GCUAGCGGUCAUAGGCCAUGGAACCUAGGAGCACCAUUUCGCUGCCAGUGAAGAAAUGAACAAAGAAAAUCUGGGCCAGGCAGGCAUCGAAAGAAAUAGCCUUGCGCUCAACCAGAAAGUCUGUAAUCAUUUUAAGGGUA | 0.73 |
| GUUAACGGUCAUAGGCCAUGGAAACUAGGAGCACCAUUUCGCUGCCAGUGAAGAAAUGAACAAAGAAAGCCUGGGCCAGGCAGGCGUCAAAAGAAAUAGUCUUGCGCUCGACCAGAAAGUCUGUAAUCAUUUUAAGGGUA | 0.02 |
| GUUAACAGUCAUAGGCCAUGGAAACUAGGAGCACCAUUUCGCUGCCAGUGAAGAAAUGAACAAAGAAAAUCUGGGCCAGGCAGGCAUCAAAAGAAAUAGUCUUGCGCUCAGCCAGAAAGUCUGUAUUCAUUUUAAGGGUA | 0.01 |
| GUUAACGGUCAUAGGCCAUGGUAACUAGGAGCACCAUUUCGCUGCCAGUGAGGAAAUGAACAAAGAAAAUCUGGGCCAGGCAGGCAUCAAAAGAAAUAGUCUUGCGCUCAGCCAGAAAGUCUGUAAUCAUUUUAAGGGUA | 0.02 |
| GUUAACGAUCAUAGGCCAUGGAAACUAGGGGCACCAUUUCGCUGCCAGUGAAGAAAUGAACAAAGAAAAUCUGGGCCAGGCAGGCAUCAAAAGAAAUAGCCUUGCGCUCAACCAGAAAGUCUGUAAUCAUUUUAAGGGUA | 1.97 |
| GUUAACGGUCAUGGGCCAUGGAAACUAGGAGCACCAUUUCGCUGCCAGCGAAGAAAUGAACAAAGAAAAUCUGGGCCAGGCAGGCAUCAAAAGAAAUAGUAUUGCGCUCAACCAGAAAGUCUGUAAUCAUUUUAAGGGUA | 0.24 |
| GUUAACGGUCAUAGGCCAUGGAAACUAGGAGCACCAUUUCGCUGCCAGUGAAGAAAUGAACAGAGAAAAUCUGGGCCAGGCAGGCACCAAAAGAAAUAGUCUCGCGCUCAACCAGAAAGUCUGUAAUCAUUUUAAGGGUA | 0.2 |
| GUCAACGGCCAUAGGCCAUGGAAACUAGUAGCACCAUUUCGCUGCCAGUGAAGAAAUGAACAAAGAAAAUCUGGGCCAGGCAGGCAUCAAAAGGAAUAGUCUUGCGCUCAACCAGAAAGUCUGUAAUCAUUUUAAGGGUA | 1.55 |
| GUUAACGGUCAUAGGCCAUGGAAACUAGGAGCACCAUUUCGCUGCCAGUGAAGAGAUGAGCUAAGAAAAUCUGGGCCAGGCGGGCAUCAAAAGAAGCAGUCUUGCGCUCAACCAGAAAGUCUGUAAUCAUUUUAAGGGUA | 0 |
| GAUAACGGUCAUAGGCCAUGGAAACUAGGAGCACCAUGUCGCUGCCUGUGAAGGAAUGAACAAAGAAAAUCUGGGCCAGGCAGGCAUCAAAAGAAAUAGUCUUGCGCUCAACCAGAAAGUCUGUAAUCAUUUUAAGGGUA | 0.5 |
| GUUAACGGUCAUAGGCCAUGGAAACUAGGAGCACCAUCUCGCUGCCAGUGAAGAAAUGAACAAAGAAAAUCUGGGCCGGGCAGGCAUCAAAAGAAAUAGUCUUGCGCUCAACCAGAAAGUCUGUAAACAUUUUAAGGGUA | 0.43 |
| GUUAACGGUCAUAGGCCGUGGAAACUAGGAGCACCAUCACGCUGCCAGUGGAGAAAUGAACAAAGAAAAUCUGGGCCAGGCAGGCAUCAAAAGAAAUAGUCUUGCGCUCAACCAGAAAGUCUGUAACCAUUUUAAGGGUA | 0.95 |
| GUUAACGGUCAUGGGCCAUGUAAACUAGGAGCACCAUUUCGCUGCCAGUGAAGAAAUGGACAAAGAAGAUCUGGGCCAGGCAGGCAUCAAAAGAAAUAGUCUUGCGCCCAACCAGAAAGUCUGUAAUCAUUUUAAAGGUA | 0.05 |
| GUUGACGGUCAUAGGCCGUGGAAACUAGGAGCACCAUUUCGCUGCCAGUGAAGAAAUGAACAAAGAAAAUCUGGGCCAGGCAGGCAUCAAAAGAAAUAGUCUUGCGCUCAACCAGAAAGUCUGUAAUCAUUUUAAGGGAA | 1.13 |
| GUUAACGGUCAUAGGCCAUGGAAGCUAGGAGCACCAUUUCGCUGCCAGUGAAGAAAUGAACAAAGAGAAUCCGGGCCAGGCAGGCAUCAAAAGUAAUAGUCUUGCGCUCGACCAGAAAGUCUGUAAUCAUUUUAAGGGUA | 0.07 |
| GUUAACGGUCACAGGCCAUGGAAACUAGGAGCACCAUUUCGCUGCCAGUGAAGAAAUGAACAAAGAAAAUCUGGGCCAGGCAGGCAUCAAAAGAAAUCGUCUUGCGCUCAACCAGAAAGUCUGUAAUCAUUUUAUGGGUA | 1.75 |

| Variant | self-cleavage |
| --- | --- |
| GUUAACGGUCAUAGGCCAUGGAAACUAGGGGCACCAUUUCGCUGCCAGUGAAGAAAUGGACAAAGAAAAUCCGGGCCAGGCAGGCAUCAAGAGAAAUAGUCUUGCGCUCAACCAGAAAGUCUGUAAUCAUUUUAAGGGUA | 0.23 |
| GUUAACGGUCAUAGGCCAUGGAAACUAGGUGCACCACUUCGCUGCCAGUGAAGAAAUGAACAAAGAAAAUCUGGGCCAGGCAGGCAUCAAAAGAAAUAGACUUGCGCUCAACCAGAAAGUCUGUAAUCAUUUUAAGGGUA | 0.53 |
| GUUAACGGUCAUAGGCCAUGGAAACUAGGAGCACCACUUCGCUGCCAGUGGAGAAAUGAACAAGGAAAAUCUGGGCCAGGCGGGCAUCAAAAGAAAUAGUCUGGCGCUCAACCAGAAAGUCUGUAAUCAUUUUAAGGGUA | 0 |
| GUUAACGGUCAUAGGCUAUGGAAACUAGGAGCACCAUUUCGCUGCCAGUGAAGAAAUGAACAAAGAGAAUCUGGGCCAGGCAGGCAUCAGAAGAAAUAGUCUUGCGCUCAACCAGAAAGUCUGUAAUCAUUUUAGGGGUA | 0.36 |
| GUCAACGGUCAUAGGCCAUGGAAACUAGGAGCACCAUUUCGCUGCCAGUGAAGAAAUGAACAAAGAAAAUCUGGGCCAGGCAGGCAUCAAAAGAAAUAGUCUUACGCUCAACCAGAAAGUCUGUAGUCAUUUUAAGGGUA | 0.06 |
| GUUAACGGUCAUAGGCCAUGGAAACUAGGAGCACCAUUUCGCUGCCAGUGAAGAAAUGAACAAAGAAAGUCUGGGCCAGGCUGGCAUCAAAAGAAAUAGUCUUGCGCUCAACCAGAAAGUCUGUAAUCAUUUUAAGGGCG | 0.23 |
| GUUAACGGUCUUAGGCCAUGGAAACUAGGAGCACCAUUUCGCUGCCAGUGAAGAAAUGAACAAAGAAAAUCUGGGACAGGCAGGCAUCAAAAGAAAUAGUCUUGCGCUCAACCAGAAAGUCUGUAACCAUUUUAAGGGUA | 0.15 |
| GUUAACGGUCAUGGGCCAUGGAAACUAGGAGCACCGUUUCGCUGCCAGUGAAGAAAUGAACAAAGAAAAUCUGGGCCAGGCAGGCAUCAAAAGAAAUGGUCUUGCGCUCAACCAGGAAGUCUGUAAUCAUUUUAAGGGUA | 0.26 |
| GUUAACGGUCAUAGGCCAUGGAAACUAGGAGCACCAUUUCGCUGCCAGUGAAGAAGUGAACAAAGAAAGUCUGGGCCAGGCGGGCAUCAAGAGAAAUAGUCUUGCGCUCAACCAGAAAGUCUGUAAUCAUUUUAAGGGUA | 0.19 |
| GUUAACGGUCAUAGGCCAUGGAAACUAGGAGCACCAUUUCGCUGCCAGUGAAGAAGUGAACAAAGAAAAUCUGGGCCAGGCAGGCAUCAAAAGAAAUAGUCUUGCGCUCAACCGGAAAGUCUGUAAUCAUUUUAAGGGCA | 0.24 |
| GUUAACGGUCAUAGGCCAUGGAAACUAGGAGCACCAUCUCGCUGCCAGUGUAGAGAUGAACAAAGAAAAUCUGGGCCAGGCAGGCAUCAAAAGAAAUAGACUUGUGCUCAACCAGAAAGUCUGUAAUCAUUUUAAGGGUA | 0.05 |
| GUUAACGGUCAUAGGCCAUGAAAACUGGGAGCACCAUUUCGCUGCCAGUGAAGAAAUGAACGAAGAAAAUCUGGGCCAGGCAGGCAUCAAAGGAAAUAGUCCUGCGCUCAACCAGAAAGUCUGUAAUCAUUUUAAGGGUA | 1.64 |
| GUUAACGGUCAUAGGCCAUGGAUACUAGGAGCACCAUUUCGCUGCCAGUGAAGAAAUGAACAAAGUAAAUCUGGGCCAGGCAGGCAUCAAAAGAAAUAGUCUUGCGCUCAACCGGAAAGUCUGUAAUCAUUUUAAGGGUA | 0.24 |
| GUUAACGGUCAUAGGCCUUGGAAACUAGGAGCACCAUUUCGCUGCCAGUGAAGAAAUGAACAAAGAAAAUCUGGGCCUGGCAGGCAUCAAAAGGAAUAGUCUUGCGCUCAACCAGAAAGUCUGUAAUCAUUUUAAGGGUA | 0.46 |
| GUUAACGGUCAUAGGCCAUGGAAACUGGGAGCACCAUUUCGCUGCCAGUGAAGAAAUGAACAAAGAAAAUCUGGGCCAGGCGGGCAUCAAAAGAAGUAGUCUUGCGCACAACCAGAAAGUCUGUAAUCAUUUUAAGGGUA | 0 |
| GUUAACGGUCAUAGGCCAUGGAGACUAGGGGCACCAUUUCGCUGCCAGUGAAGAAAUGAACAAAGAGAAUCUGGGCCAGGCAGGCAUCAAAAGAAAUAGUCUUGCGCUCAACCAGAAAGUCUGCAAUCAUUUUAAGGGUA | 0.89 |
| GUUAACGGUCAUAGGCCGCGGAAACUAGGAGCACCAUUUCGCUGCCAGUGAAGAAAUGUACAAAGAAAAUCUGGGCCAGGCAGGCAUCAAGAGAAAUAGUCUUGCGCUCAACCAGAAAGUCCGCAAUCAUUUUAAGGGUA | 0.42 |
| GUUAACGGUCAUAGGCCAUGGAAACUAGGAGCACCAUCUCGCUGCCAGUGAAGAAAUGAACAAAGAAAAUCCGGGCCAGGCAGGCAUCAAAAGAAAUAGUCUUGCGCUCAACCAGAAAGUCUGUAGUCAUUUUAAGGGUG | 0.21 |
| GAUAACGGUCAUAGGCCAUGGAAACUAGGAGCACCAUUUCGCUGCCAGUGAAGAAAUGAACAGAGAAAAUCUGGGCCAGGCAGGCAUCAAAAGAAAUAGUCUUGCGCCCAGCCAGAAAGUCUGUAAUCAUUUUAAGGGUA | 0.03 |
| GUUAACGGUCAUAGGCCAUGGAAACUAGGAGCACCAUUUCGCUGCCAGUGUAGAAAUGAGCAAAGAAAGUCUGGGCCAGGCAGGCAUCAAAAGAAAUAGUCUUGCGCUCAACCAGAAAGUCUGUAAUCAUUUUAAGGGUA | 1.59 |
